Consider 45 compounds from PubChem BioAssay AID687022 (Broad Institute, 2013).

The whole screen tested about 1,000 compounds, of which about 360 (36%) were called active.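 The calls were made as follows: active = Fitted curve of melting temperature shift crosses the 1.0 threshold at or below the sample's highest valid tested concentration; inconclusive = Flat fit with activity 30 to 70, or invalid fit; inactive = Opposite direction, flat within 30, or no crossing.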 This part holds few or none of the hits.

The assay concerns the target Fibroblast growth factor 22 (Homo sapiens) (UniProt Q9HCT0). The assay is described as follows: FGF22 ligand-induced thermal stabilization – biophysical, thermal shift, cherry-pick, FGF22 synaptogenesis inhibitor project, dose response (AID 687022). Also: reference of the scale not given here. To be noted: recombinant FGF22 thermal shift, SYPRO orange melting; at 38 µM (top of the series) unless noted.
Sequence of UniProt Q9HCT0 (Q9HCT0 whole entry, looked up): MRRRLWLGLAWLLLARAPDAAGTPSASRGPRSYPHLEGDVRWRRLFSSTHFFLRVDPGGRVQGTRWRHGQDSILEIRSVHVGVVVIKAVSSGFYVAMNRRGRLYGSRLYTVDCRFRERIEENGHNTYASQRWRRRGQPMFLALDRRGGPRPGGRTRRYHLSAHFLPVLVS
For `O=C(C[C@@H]1CC[C@H]2[C@@H](COC[C@@H](O)CN2C(=O)c2ccccc2F)O1)NCc1ccccc1`, the Tm shift activity was inactive: 0.089% [at 42 µM]. With `O=C(Cc1cccnc1)N[C@H]1CC[C@H](CCn2cc(-c3ccccc3F)nn2)O[C@H]1CO` the figure was inactive: -0.128%; with `CC(C)(CNS(=O)(=O)c1ccc2c(c1)OCCO2)N1CCOCC1`, inactive: -0.045%.

For `COc1cccc(NC(=O)N2C[C@H](O)COC[C@@H]3O[C@@H](CC(=O)NC4CCC4)CC[C@H]32)c1`, the Tm shift activity is inactive: -0.128%.

For the compound `COc1ccc(NC(=O)N(C)C[C@@H]2Oc3ccc(NS(=O)(=O)c4ccccc4)cc3C(=O)N([C@H](C)CO)C[C@H]2C)cc1`, the Tm shift activity is inactive: 0.043% [at 42 µM]. For the compound `CC(C)C#Cc1ccc([C@H]2[C@H](CO)N3C(=O)CN(C(=O)C4CCCCC4)C[C@@H]23)cc1`, the Tm shift activity is inactive: -1.29% [at 19.5 µM]. Consider `C=CCOc1ccc2c(c1)C(=NO)c1cc(OCC=C)ccc1-2`, for which the Tm shift activity is inactive: -0.021%. For the compound `OC[C@@H]1[C@@H](c2ccc(-c3cccnc3)cc2)[C@@H]2CN(Cc3ccccn3)CCCCN12`, the Tm shift activity is inactive: -0.223%.

Turning to `Cc1ccc(S(=O)(=O)N(C)/N=C/c2ccc(N(C)C)cc2)cc1`, the Tm shift activity was inactive: -0.176%. On to `COc1ccc(C(=O)C2CCCN(C(=O)c3cc(C(C)C)no3)C2)cc1F` (stereo not given), for which the Tm shift activity was inactive: -0.204%.

As to `O=S(=O)(/N=C(/Nc1nccs1)c1ccc(F)cc1)c1ccccc1`, the Tm shift activity is inactive: 0.04%. The value for `Cc1ccc(S(=O)(=O)N(C)C[C@@H]2Oc3cc(C4=CCCC4)ccc3S(=O)(=O)N([C@@H](C)CO)C[C@@H]2C)cc1` was inactive: -0.131% [at 42 µM]; that for `O=C(Nc1cccc(F)c1)N1C[C@@H]2[C@H](c3ccccc31)[C@H](CO)N2C(=O)c1cccnc1` was inactive: 0.485% [at 42 µM]; that for `Cc1cc(C)c(C)c(S(=O)(=O)Nc2ccccc2C(=O)O)c1C` was inactive: 0.641% [at 5 µM]. Take `NNC(=O)CN1C(=O)C2(OCCO2)c2ccccc21`: the Tm shift activity was inactive: -0.218%. The value for `O=C(N[C@@H]1C=C[C@H](CC(=O)N2CCCCC2)O[C@@H]1CO)c1cccc(F)c1` was inactive: 0.107%; that for `CCOC(=O)C1(C)CCCN(C(=O)c2cccc(C#N)c2)C1` (stereo not given) was inactive: -0.156%; that for `O=C(NCCc1ccc2c(c1)OCCO2)c1cccc(F)c1` was inactive: -0.125%.

With `C[C@@H]1CCCCO[C@H](CN(C)C(=O)C2CCCCC2)[C@H](C)CN([C@H](C)CO)C(=O)c2cc(NS(C)(=O)=O)ccc2O1`, the Tm shift activity was inactive: -0.034%. Regarding `CN(Cc1ccccc1)C(=O)c1[nH]cnc1C(=O)NC1CCN(C(=O)OC(C)(C)C)CC1`, the Tm shift activity was inactive: -0.131%.

Consider `CC(=O)c1ccc(S(=O)(=O)N2CCN(CC(=O)Nc3ccc(Cl)c([N+](=O)[O-])c3)CC2)cc1`, for which the Tm shift activity is inactive: 0.023%. The value for `CC1C(=O)Nc2ccc(S(=O)(=O)NCCc3ccc(Cl)cc3)cc2NC1=O` (stereo not given) was inactive: -0.037%; that for `NS(=O)(=O)c1ccc2c(c1)C(=NO)c1cc(S(N)(=O)=O)ccc1-2` was inactive: 0.643%; that for `C[C@H]1CN([C@@H](C)CO)S(=O)(=O)c2ccc(/C=C/c3ccccc3)cc2O[C@@H]1CN(C)Cc1ccc(C(=O)O)cc1` was inactive: -0.154% [at 42 µM]. In the case of `O=C(Nc1cccc2ccccc12)c1cccc([N+](=O)[O-])c1`, the Tm shift activity was inactive: 0.033%. With `CCOCCCNS(=O)(=O)c1ccc(NC(=O)c2ccccc2)cc1` the figure was inactive: 0.014%. On to `C/C=C/c1ccc2c(c1)O[C@@H](CN(C)Cc1ccncc1)[C@@H](C)CN([C@@H](C)CO)S2(=O)=O`, for which the Tm shift activity is inactive: -0.079% [at 42 µM]. The value for `COc1cccc(NC(=O)CN2CCN(S(=O)(=O)c3ccc(F)cc3)CC2)c1` was inactive: -0.156%; that for `O=C(Nc1ccc2c(c1)OCO2)c1cnn2cccnc12` was inactive: -0.154%. With `C[C@H]1CN([C@@H](C)CO)C(=O)c2cc(NS(=O)(=O)c3ccccc3)ccc2O[C@@H]1CN(C)Cc1ccc(C(=O)O)cc1` the figure was inactive: -0.154%. The value for `Cc1cccc(C(=O)NNC(=O)c2ccc(NS(=O)(=O)c3cccs3)cc2)c1C` was inactive: -0.21%; that for `CCC(C)N(C(=O)COc1ccc(-c2nnco2)cc1)C1CCS(=O)(=O)C1` (stereo not given) was inactive: -0.201%; that for `CN(C(=O)Cn1nnc2ccccc2c1=O)C1CCCCC1` was inactive: -0.128%.

In the case of `O=C(C1CC1)N1[C@H](CO)[C@H]2c3ccccc3N(S(=O)(=O)c3ccccc3)C[C@H]21`, the Tm shift activity was inactive: -0.233%. With `COCCNC(=O)[C@H]1[C@H](CO)[C@H]2Cn3c(ccc(-c4ccc(F)cc4)c3=O)[C@@H]1N2C(=O)NC(C)C` the figure was inactive: 0.158% [at 42 µM]; with `COc1cccc(NC(=O)N[C@@H]2CC[C@@H](CC(=O)Nc3ccccc3)O[C@H]2CO)c1`, inactive: 0.248%; with `O=C(NCC[C@@H]1CC[C@@H](NS(=O)(=O)c2ccccc2)[C@@H](CO)O1)c1ccc2c(c1)OCO2`, inactive: -1.36% [at 42 µM]. The value for `Cc1c2c(n3c(nc4ccccc43)c1C#N)N(CCN(C)C)CC2` was inactive: -0.163%; that for `CCCn1c(=O)[nH]c(=O)c2c1nc(-c1cccs1)n2CCOC` was inactive: 0.093%; that for `CCCNC(=O)Nc1ccc2c(c1)C(=O)N(C)C[C@H](OC)[C@@H](C)CN(C(=O)c1ccccc1F)[C@H](C)CO2` was inactive: 0.294%. With `COc1cccc(S(=O)(=O)Nc2ccc3c(c2)[C@@H]2C[C@H](CC(=O)NC4CCCCC4)O[C@@H](CO)[C@@H]2O3)c1` the figure was inactive: -0.228%; with `CNC[C@@H]1Oc2ccc(NC(=O)C3CCCCC3)cc2C(=O)N([C@@H](C)CO)C[C@H]1C`, inactive: -0.131%; with `COCC(=O)N(C)C[C@@H]1Oc2cc(C#C[C@H](C)O)ccc2S(=O)(=O)N([C@@H](C)CO)C[C@H]1C`, inactive: -0.017% [at 42 µM]. On to `C[C@@H]1CN([C@@H](C)CO)C(=O)c2cc(Br)cnc2O[C@H]1CN(C)C(=O)C1CC1`, for which the Tm shift activity is inactive: -0.055%.

Regarding `Cc1nc2cc(C(=O)NCc3ccc4c(c3)OCO4)ccc2n1-c1ccc(Br)cc1`, the Tm shift activity was inactive: 0.351%.
